Assay results from paper PMC4336329 (PLoS ONE, 2015).
Among all 310,000 compounds or so, about 2,200 (0.71%) showed an effect of 50% or more. Effects have a minus sign here. This is one part of the list.

target: human ether-à-go-go-related gene (hERG) potassium channel (human, UniProt Q12809); assay: primary screen, population patch clamp on CHO cells stably expressing hERG
Sequence (Q12809 whole entry, looked up): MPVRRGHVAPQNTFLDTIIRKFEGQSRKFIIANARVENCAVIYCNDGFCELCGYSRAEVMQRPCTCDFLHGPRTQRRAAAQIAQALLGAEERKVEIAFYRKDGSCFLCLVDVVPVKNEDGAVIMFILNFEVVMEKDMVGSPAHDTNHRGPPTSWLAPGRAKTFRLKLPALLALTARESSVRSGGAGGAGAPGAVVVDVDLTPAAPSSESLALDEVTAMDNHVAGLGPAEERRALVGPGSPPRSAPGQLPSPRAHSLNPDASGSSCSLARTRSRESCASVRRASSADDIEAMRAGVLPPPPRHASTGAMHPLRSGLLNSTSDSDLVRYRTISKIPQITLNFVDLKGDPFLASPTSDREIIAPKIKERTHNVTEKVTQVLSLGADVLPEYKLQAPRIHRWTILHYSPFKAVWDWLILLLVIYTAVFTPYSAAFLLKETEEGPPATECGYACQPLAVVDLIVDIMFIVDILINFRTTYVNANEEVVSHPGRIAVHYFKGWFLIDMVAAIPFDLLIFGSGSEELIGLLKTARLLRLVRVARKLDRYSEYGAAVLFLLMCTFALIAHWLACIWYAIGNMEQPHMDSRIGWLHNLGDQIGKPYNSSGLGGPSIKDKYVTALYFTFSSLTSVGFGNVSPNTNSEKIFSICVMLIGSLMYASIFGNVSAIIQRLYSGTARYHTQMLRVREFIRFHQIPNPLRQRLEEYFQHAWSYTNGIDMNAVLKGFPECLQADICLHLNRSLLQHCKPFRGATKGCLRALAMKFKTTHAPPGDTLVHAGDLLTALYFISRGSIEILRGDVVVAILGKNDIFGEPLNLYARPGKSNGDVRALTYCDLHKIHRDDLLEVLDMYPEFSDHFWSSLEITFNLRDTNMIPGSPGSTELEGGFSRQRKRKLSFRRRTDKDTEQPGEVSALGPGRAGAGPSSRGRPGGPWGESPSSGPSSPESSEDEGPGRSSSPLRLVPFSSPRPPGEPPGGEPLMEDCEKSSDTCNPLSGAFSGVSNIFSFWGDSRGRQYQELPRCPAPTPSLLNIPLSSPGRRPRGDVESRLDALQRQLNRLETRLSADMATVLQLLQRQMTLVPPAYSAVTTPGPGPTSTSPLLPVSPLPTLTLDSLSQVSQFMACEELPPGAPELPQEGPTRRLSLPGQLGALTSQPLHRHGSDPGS

| SMILES | hERG current change (%, negative = inhibition) at 1uM |
| --- | --- |
| Cc1ccc(C(=O)c2ccccc2C(=O)OCC(=O)Nc2ccc(SC(F)F)cc2)cc1 | 3.12% |
| CC1CCCN(C(=O)COC(=O)/C=C/c2ccc(C(F)(F)F)cc2)C1 (stereo not shown) | 15.5% |
| CC(=O)Nc1ccc(C2=NN(c3ccccc3)C(c3ccccc3)C2)cc1 (stereo not shown) | 5.35% |
| O=C(COc1ccc(Cl)cc1)N/N=C/c1cccc2cccnc12 | 7.98% |
| O=C(Nc1cccc(Cl)c1)C1C2CCC3C(CCC21)C3(Cl)Cl (stereo not shown) | 11.4% |
| CC1CCN(c2nc(NCc3ccco3)nc(N)c2[N+](=O)[O-])CC1 | 1.2% |
| Cc1ccccc1C(=O)NC(=S)Nc1ccccc1C(=O)O | 7.8% |
| COc1ccc2cc(CCNC(=O)c3ccco3)c(=O)[nH]c2c1 | 10.9% |
| CCOC(=O)N1CCN(C(=O)c2c(O)c3cccc4c3n(c2=O)CC4)CC1 | 8.56% |
| COc1ccc(Cl)cc1NC(=O)CCCNC(=O)c1ccc(Cl)cc1 | 3.79% |
| Cc1ccccc1-n1ncc2c1CC(C)(C)CC2NC(=O)c1cn[nH]c1C (stereo not shown) | 8.4% |
| COC(=O)c1ccc(C(=O)OC)c(NS(C)(=O)=O)c1 | 1.69% |
| CCCn1nnc(NC(=O)C(C)C)n1 | 1.8% |
| COc1ccc(/C=C2/C(=O)N(c3ccccc3)N=C2C)cc1OC | 9.6% |
| CCC1=C(OC(=O)N(CC)CC)N2C(=O)OC(=NCC3CC3)[C@]2(C)[C@H]2C1=CC[C@H]1C(=O)N(CC(=O)OC)C(=O)[C@H]12 | 0.812% |
| CC(C)(C)NC(=O)NC(=O)COC(=O)c1cccc(F)c1 | -0.922% |
| CC(C)[C@H](NC(=O)N1CCn2c1nc1ccccc12)C(=O)NCc1ccccc1Cl | 11.2% |
| Cc1cnc(C(=O)OCC(=O)Nc2cc(S(=O)(=O)N3CCCCC3)ccc2Cl)cn1 | 19.4% |
| CN1CCc2c1nc1ccccc1c2NC(=O)CN1CCCC1 | 13% |
| Cc1cc(C)c2c(N)c(-c3nnc(SCc4ccc(Cl)cc4)n3C)sc2n1 | 14.6% |
| COc1ccc(OC)c(NC(=O)CCN2CCN(c3ccccc3F)CC2)c1 | 9.62% |
| COc1ccc(CCNC(=O)CSc2nc(-c3ccco3)cc(C(F)(F)F)n2)cc1 | -1.21% |
| Cl.c1ccc(-n2cnc3cc(NCc4ccccn4)ccc32)cc1 | 2.17% |
| COc1ccc(Nc2nc(N/N=C/c3ccc(N(C)C)cc3)nc(C)c2[N+](=O)[O-])cc1 | 21.5% |
| CC(=O)Nc1ccc(S(=O)(=O)Oc2ccccc2N2C(=O)C3C4CCC(C4)C3C2=O)cc1 (stereo not shown) | 8.91% |
| CC(=O)c1c(C)n(-c2ccc(Br)cc2)c2ccc(O)cc12 | 14.8% |
| Cc1ccc(C(C(=O)NC2CCCC2)N(Cc2ccccc2)C(=O)c2csnn2)o1 (stereo not shown) | 12.4% |
| O=C(CN1C(=O)c2ccccc2S1(=O)=O)c1ccccc1Cl | 10.2% |

| SMILES | hERG current change (%, negative = inhibition) at 1uM |
| --- | --- |
| CCOC(=O)CCSc1nc(-c2ccccc2)cc(C(F)(F)F)n1 | 9.18% |
| CSc1c[n+]2c(n1C)CCC2.[I-] | 5.05% |
| Brc1ccc(-c2ccccc2)cc1 | 12.4% |
| CC(C)Oc1ccc(/C(O)=C2/C(=O)C(=O)N(CCN3CCOCC3)C2c2ccccc2)cc1 (stereo not shown) | 12.8% |
| COC(=O)c1ccc(Cn2nnc3c(=O)[nH]c(C4CCCN(S(=O)(=O)c5ccccc5)C4)nc32)cc1 (stereo not shown) | 10.9% |
| Cc1ccccc1CC(=O)Nc1cccnc1 | 14.5% |
| COc1ccccc1CCNC(=O)CCSc1nc(-c2ccco2)cc(C(F)(F)F)n1 | 13.4% |
| CN1CCN(c2ccc(Cl)cc2NC(=O)CC2OC(=O)c3ccccc32)CC1 (stereo not shown) | -61.2% |
| CC(=O)Nc1ccc(N(C)S(C)(=O)=O)cc1 | -0.0576% |
| COc1ccc(-c2nnc3ccc(SCC(=O)Nc4cc(C)on4)nn23)cc1OC | 4.84% |
| O=C1CN2C(=Nc3ccc(Br)cc3C2c2ccccc2)CCN1 (stereo not shown) | 6.42% |
| CCOC(=O)N1CCN(c2c(NCCN3CCN(Cc4ccccc4)CC3)c(=O)c2=O)CC1 | 0.789% |
| O=C(c1ccc(CS(=O)(=O)c2ccc(Br)cc2)o1)N1CCN(C2CCCCC2)CC1 | -7.37% |
| COc1ccc(Cl)cc1NC(=O)CCN1C(=O)C2C3C=CC(C4CC34)C2C1=O (stereo not shown) | 4.88% |
| CC(C)CN(C(=O)CSc1n[nH]c(-c2cccs2)n1)C1CCS(=O)(=O)C1 (stereo not shown) | 2.69% |
| Cc1cc(Nc2ccc3c(c2)OCCO3)c2ccccc2n1.Cl | -3.48% |
| Cc1ccc(C)c(-n2c(SCC(=O)N3CCCC3)nnc2-c2ccccn2)c1 | 15.3% |
| C/C(=N\NC(=O)COc1ccccc1)c1ccc(O)cc1 | -3.98% |
| CC(Cl)C(=O)N1c2ccccc2CCc2ccccc21 (stereo not shown) | 8.04% |
| Cc1oc(-c2cccc(F)c2)nc1CN(Cc1ccccc1)C[C@@H]1CCC(=O)N1 | 6.53% |
| CN(c1ccc(O)cc1)c1nc(-c2ccccc2)cs1 | 17.6% |
| CN(Cc1ccncc1)C1CC(=O)N(c2ccc(Cl)cc2)C1=O (stereo not shown) | -3.62% |
| Cc1cc(SCC(=O)N/N=C/c2ccc(O)c(O)c2O)c(C)cc1Br | 7.17% |
| O=C(CN1C(=O)/C(=C/c2ccccc2)SC1=S)Nc1ncc(Cc2ccccc2)s1 | 11.5% |
| CC(C)(Cc1cc(CC(C)(C)C(=O)O)cc(C(C)(C)C)c1)C(=O)O | 15.1% |
| COc1ccccc1NC(=O)c1ccccc1N(Cc1ccccc1)S(C)(=O)=O | 16.5% |
| Cc1cccc(N2C(=O)/C(=C/c3ccccn3)SC2=S)c1 | 9.11% |
